# PubChem BioAssay AID504832 (National Center for Advancing Translational Sciences (NCATS), 2011)
# “And” between values parts separate entries of the source, which are not always exact repeats. Equal values may be shown once. Hit rate of the full screen: of about 310,000 compounds, about 18,000 (5.8%) were called active. The shares of active, inactive and inconclusive entries below differ from those in the screen. The call rests on the fitted dose curve; in most records, active means well fitted inhibition curve with a large enough effect; inconclusive means small, poorly fitted or top-dose-only effect, or another doubt; inactive means no such curve, though single readings can be large or run the other way. Where the call is inconclusive, the potency comes from a doubtful curve fit.
# Assay: Primary qHTS for delayed death inhibitors of the malarial parasite plastid, 48 hour incubation
# Details: P. falciparum luciferase growth in erythrocytes; series mostly up to 28.7 µM; activity change, negative = inhibition: at the top concentration
# How it was run: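 Read-out is firefly luciferase luminescence from an integrated reporter in P. falciparum, so falling signal marks reduced parasite growth. Infected erythrocytes were at 2% hematocrit and 0.1% parasitemia (final) in Albumax-supplemented RPMI 1640.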
# On the % scale 0 is the no-effect control and ±100 the full control effect; potency means the concentration at half of the fitted maximal effect; tags describe the fitted curve by direction and shape.
SMILES,Potency,"activity change, negative = inhibition"
N#Cc1ccc(NC(=O)Nc2cccc(C#N)c2)cc1,active: 11.7 µM,
CCOC(=O)c1ccccc1NC(=O)COc1ccccc1,"inconclusive: 9.28 µM [inhibitor, single point]",
COc1ccc(-c2nnc3ccc(SCc4ccccc4)nn23)cc1,"inconclusive: 0.0029 µM [inhibitor, full curve, poor fit]",
Cc1ccc(NC(=O)CCN2C(=O)C3CCCCC3C2=O)cc1[N+](=O)[O-] (configuration not stated),,inactive: 1.28%
CC1CCc2sc3ncnc(N4CCN(CCO)CC4)c3c2C1 (configuration not stated),,inactive: -5.37%
CCOC(=O)c1ccc(S(=O)(=O)NCC(c2ccc(N(C)C)cc2)c2c[nH]c3ccccc23)cc1 (configuration not stated),,inactive: -16%
O=C(Nc1ccc2c(c1)OCO2)C1Cc2ccccc2CN1S(=O)(=O)c1cccs1 (configuration not stated),,inactive: 44.6%
COc1ccc(/C=N/NC(=O)c2nc(-c3ccccc3)n(-c3ccccc3)n2)cc1,,inactive: 6.3%
c1csc(C2(N3CCCCC3)CCCCC2)c1,,inactive: 23.4%
CCOC(=O)c1c(NC(=O)CSc2nnc(-c3cccnc3)n2Cc2ccco2)sc(C)c1C,"inconclusive: 18.5 µM [inhibitor, single point]",
COc1ccc(CCC(=O)Nc2cc3c4c(c2)CCC(=O)N4CCC3)cc1,"inconclusive: 20.8 µM [inhibitor, partial curve, poor fit]",
NC(=O)c1ncc(C(F)(F)F)cc1Cl,"inconclusive: 18.5 µM [inhibitor, single point]",
COc1ccc(CCNC(=O)CSc2nnc(-c3cccc(C)c3)o2)cc1OC,"inconclusive: 13.1 µM [inhibitor, partial curve]",
CCOC(=O)c1c(C)[nH]c(C)c1C(=O)CSc1nc2ccccc2c(=O)n1-c1ccc(C)cc1,"inconclusive: 11.7 µM [inhibitor, single point]",
N#CC1=CN(Cc2ccccc2)C=C(/C=N/Nc2ccccc2)C1,"inconclusive: 18.5 µM [inhibitor, single point]",
Cc1c(C(=O)Nc2cccc(S(=O)(=O)N3CCCC3)c2)oc2ccccc12,"inconclusive: 4.15 µM [inhibitor, single point]",
Cc1ccc(F)cc1NC(=O)CN1C(=O)NC(C)(c2ccc3c(c2)OCCO3)C1=O (configuration not stated),"inconclusive: 18.5 µM [inhibitor, single point]",
CCCc1c(OCCCCc2nn[nH]n2)ccc(C(C)=O)c1O,"inconclusive: 13.5 µM [inhibitor, single point] and inconclusive: 1.04 µM [inhibitor, partial curve, poor fit]",
CCN1CC=C(c2c[nH]c3ccccc23)CC1,active: 1.04 µM,
COc1ccc(CCNc2nc(-c3ccccn3)cs2)cc1OC,"inconclusive: 7.38 µM [inhibitor, partial curve]",
COc1ccc(CCN=C(N)Nc2nc(C)cc(C)n2)cc1,"inconclusive: 10.4 µM [inhibitor, partial curve, poor fit]",
COc1cccc(-n2c([S-])c(C(=O)Nc3ccc(S(=O)(=O)N4CCOCC4)cc3)[n+]3cc(C(N)=O)ccc23)c1,"inconclusive: 9.28 µM [inhibitor, partial curve]",
COc1ccccc1-n1c(SCC(=O)Nc2ccc(F)cc2)nc2c(c1=O)SCC2,"inconclusive: 14.7 µM [inhibitor, single point]",

SMILES,Potency,"activity change, negative = inhibition"
Nc1cc(-c2ccccc2)nn1Cc1ccc(Cl)cc1,"inconclusive: 18.5 µM [inhibitor, single point]",
O=S(=O)(c1ccc(N=C2NN=C(c3cc(F)ccc3F)CS2)cc1)N1CCOCC1,active: 2.33 µM,
COc1ccc(C2=NN(S(C)(=O)=O)C(c3cccs3)C2)cc1 (configuration not stated),,inactive: 177%
Cc1ccc(C(=O)OCC(=O)Nc2ccc(Cl)cn2)cc1S(=O)(=O)N1CCOCC1,"inconclusive: 23.3 µM [inhibitor, single point]",
Cc1cccc2c(C(=O)N3CCN(c4ccccc4)CC3)cc(-c3ccncc3)nc12,active: 8.28 µM,
COc1ccc(Cn2c(C(F)(F)F)ccc(C(N)=O)c2=O)cc1,"inconclusive: 0.0037 µM [inhibitor, full curve, poor fit]",
COc1ccc(/C=C\c2onc(C)c2S(=O)(=O)N2CCC(C(=O)NCc3ccco3)CC2)cc1,"inconclusive: 5.86 µM [inhibitor, partial curve, poor fit]",
COc1ccccc1C(=O)N/C(=C/c1ccc2c(c1)OCO2)C(=O)Nc1ccc(C(=O)O)cc1,"inconclusive: 13.1 µM [inhibitor, partial curve]",
COc1cc2ccccc2cc1C(=O)NC(=S)Nc1nnn(C)n1,,inactive: 3.57%
CNC(=O)/C(C#N)=C\c1ccc(CNS(=O)(=O)c2ccccc2)o1,,inactive: -7.23%
O=C(CCCN1C(=O)c2cccc3cccc(c23)C1=O)Nc1ccon1,,inactive: 13%
O=C(NCc1ccccn1)c1ccc(OC2CCN(Cc3ccc(F)cc3F)CC2)cc1,active: 11.7 µM,
CCOC(=O)CCNC(=O)Nc1ccc2nc(C)n(Cc3ccccc3Cl)c(=O)c2c1,"inconclusive: 18.5 µM [inhibitor, single point]",
COc1ccc(NC(=O)C2CCCN2S(=O)(=O)c2ccc(Cl)cc2)cc1 (configuration not stated),,inactive: -17.3%
CC(=O)N1CCN(c2ccc(NC(=O)c3ccccc3Cl)cc2)CC1,,inactive: 19.8%
COc1ccc(-c2csc(NC(=O)CSc3nnnn3C)n2)cc1OC,"inconclusive: 16.5 µM [inhibitor, single point]",
OC1(c2ccc(Br)cc2)CN(c2ccccc2)C2=[N+]1CCS2 (configuration not stated),"inconclusive: 18.5 µM [inhibitor, single point]",
COc1cc(/C=N/NC(=O)c2ccc3ccccc3c2)ccc1Oc1ccc([N+](=O)[O-])cn1,,inactive: -18.8%
COc1ccc(CNC(=O)C2CCN(S(=O)(=O)c3c(C)n[nH]c3C)CC2)cc1,"inconclusive: 4.15 µM [inhibitor, single point]",
Cn1c(Cl)cnc1C1CC(=O)c2cc(Cl)ccc2O1 (configuration not stated),"inconclusive: 16.5 µM [inhibitor, single point]",
COc1ccc(-c2cc(C(F)F)nc(-n3nc(C)cc3C)n2)cc1,active: 8.28 µM,
Cc1ccc(Cn2cc(/C=N/Nc3ccc([N+](=O)[O-])cn3)c3ccccc32)cc1,"inconclusive: 18.5 µM [inhibitor, single point]",
COCc1cc(C)nc(SCC(=O)Nc2ccccc2N2CCOCC2)c1C#N,"inconclusive: 11.7 µM [inhibitor, partial curve]",

SMILES,Potency,"activity change, negative = inhibition"
CC(=O)N1c2ccc(S(=O)(=O)N3CCC(C(=O)Nc4cccc(C)c4)CC3)cc2CC1C (configuration not stated),"inconclusive: 13.1 µM [inhibitor, single point]",
COc1ccccc1N1CCN(C(=O)CN(C)S(=O)(=O)c2ccc3c(c2)c(=O)n(C)c(=O)n3C)CC1,"inconclusive: 8.28 µM [inhibitor, partial curve, poor fit]",
COc1ccccc1N1CCN(C(=O)c2cn(-c3ccccc3)nc2-c2cccnc2)CC1,"inconclusive: 18.5 µM [inhibitor, single point]",
CCCn1c(=NC(=O)CCS(=O)(=O)c2ccccc2)sc2cc(S(N)(=O)=O)ccc21,"inconclusive: 18.5 µM [inhibitor, single point]",
Cc1cccc2cc(C3CC(c4ccco4)=NN3S(C)(=O)=O)c(Cl)nc12 (configuration not stated),"inconclusive: 1.85 µM [inhibitor, partial curve, poor fit]",
OCCC1CN(Cc2ccc(-c3ccco3)cc2)CCN1Cc1ccsc1 (configuration not stated),"inconclusive: 13.1 µM [inhibitor, partial curve, poor fit]",
O=C1C(=O)N(CCS(=O)(=O)c2ccccc2)c2ccc(Cl)cc21,"inconclusive: 11.7 µM [inhibitor, partial curve]",
CCOc1ccc(-c2nnc(SCC(=O)NC(C)(C)C)nc2-c2ccc(OCC)c(OC)c2)cc1OC,active: 2.33 µM,
CCOc1ccc(NC(=O)CN(C)C(=O)c2cc(S(=O)(=O)N3CCCCCC3)ccc2OC)cc1OCC,"inconclusive: 11.7 µM [inhibitor, partial curve]",
CCC(C)N(CCNC(=O)c1ccc2c(c1)NC(=O)c1ccccc1S2)C1CCCCC1 (configuration not stated),active: 1.85 µM,
O=C(CSc1nnc(NC(=O)c2ccco2)s1)Nc1ccccc1Cl,,inactive: 36.3%
COCCCNc1nc(N)c([N+](=O)[O-])c(NCC2CCCO2)n1 (configuration not stated),"inconclusive: 0.147 µM [inhibitor, full curve, poor fit]",
CCOC(=O)C1CCCN(c2ccc(NC(=O)c3snc4c(=O)[nH]cnc34)cc2)C1 (configuration not stated),"inconclusive: 5.22 µM [inhibitor, partial curve]",
O=C1C(=O)N(CCCn2ccnc2)C(c2ccc([N+](=O)[O-])cc2)/C1=C(\O)c1ccc2c(c1)OCCO2 (configuration not stated),"inconclusive: 4.65 µM [inhibitor, partial curve, poor fit]",
COc1ccc(/C=N/Nc2cc(C)nc(N)n2)cc1,active: 9.28 µM,
OCC[C@@H]1C[C@H](O)[C@@H](O)[C@@]2(Cc3ccccc3O2)O1,,inactive: 36.7%
O=C(Nc1ccc(Br)cn1)c1ccc([N+](=O)[O-])o1,,inactive: -37.6%
Cc1ccc(/C=C/C(=O)Nc2nnc(SCc3ccc(C#N)cc3)s2)o1,,inactive: 7.25%
CCOC(=O)c1c(NC(=O)COC(=O)CCOc2ccc(OCC)cc2)sc(C(=O)N(C)C)c1C,"inconclusive: 11.7 µM [inhibitor, partial curve]",
COc1cc(/C=C/C(=O)Nc2cc(C(F)(F)F)ccc2Cl)cc(OC)c1OC,active: 10.4 µM,
COc1ccc(S(=O)(=O)N2CCCCC2)cc1NC(=O)CN1CCN(C(C)=O)CC1,"inconclusive: 13.1 µM [inhibitor, partial curve, poor fit]",
